Some of the results follow. Single values are uncertain, as repeats are few or missing.
Experiments:
Assay in all cases: cell count relative to DMSO control; melanoma cells; higher = more viable cells
Settings in all cases: library dose: standard library concentration; 72 h
G361 = test system: G361
IPC-298 = test system: IPC-298
IST-MEL1 = test system: IST-MEL1
LB2518-MEL = test system: LB2518-MEL
LOXIMVI = test system: LOXIMVI
MEL-HO = test system: MEL-HO
MZ2-MEL = test system: MZ2-MEL
MeWo = test system: MeWo
RPMI7951 = test system: RPMI7951
RVH-421 = test system: RVH-421
SkMel28 = test system: SkMel28
SkMel2 = test system: SkMel2
SkMel30 = test system: SkMel30
SkMel5 = test system: SkMel5
UACC257 = test system: UACC257
UACC62 = test system: UACC62
WM115 = test system: WM115
WM1716 = test system: WM1716
WM1745 = test system: WM1745
WM3526 = test system: WM3526
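Further: cells treated in 1,536-well plates, then fixed and DAPI-stained, with nuclei counted from automated high-throughput microscope images.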

Compound	cell count (G361) [%]	cell count (IPC-298) [%]	cell count (IST-MEL1) [%]	cell count (LB2518-MEL) [%]	cell count (LOXIMVI) [%]	cell count (MEL-HO) [%]	cell count (MZ2-MEL) [%]	cell count (MeWo) [%]	cell count (RPMI7951) [%]	cell count (RVH-421) [%]	cell count (SkMel28) [%]	cell count (SkMel2) [%]	cell count (SkMel30) [%]	cell count (SkMel5) [%]	cell count (UACC257) [%]	cell count (UACC62) [%]	cell count (WM115) [%]	cell count (WM1716) [%]	cell count (WM1745) [%]	cell count (WM3526) [%]
C[C@]12O[C@H](C[C@]1(O)CO)n1c3ccccc3c3c4c(c5c6ccccc6n2c5c31)CNC4=O [Lestaurtinib] + Clc1ccc(Nc2nnc(Cc3ccncc3)c3ccccc23)cc1 [vatalanib] (first compound 0.02 µM, partner dose 10 µM)	57.5	49.7	86.8	55	56.1	63.1	55.8	65.2	90.4	49.6	58.1	72.3	70.5	56.3	62.9	61.5	60.2	98.7	71.7	80.6
N.N.[Cl][Pt][Cl] [cisplatin] + O=C(Nc1cccc(Cl)c1)Nc1ncc(CCNc2ncnc3ccsc23)s1 [SNS314] (first compound 8 µM, partner dose 0.004 µM)	76.6	105	73.8	88.3	75.4	90	110	91.2	90.2	97.4	101	90.2	98.8	118	83.3	82.5	60.3	71.1	96.1	81
C[C@]12O[C@H](C[C@]1(O)CO)n1c3ccccc3c3c4c(c5c6ccccc6n2c5c31)CNC4=O [Lestaurtinib] + C[C@]1(c2nc3c(C(N)=O)cccc3[nH]2)CCCN1 [Veliparib] (first compound 0.02 µM, partner dose 7 µM)	97.8	88.3	105	61.9	108	82.3	87.7	88.3	79.7	78.7	84.3	115	87.9	64.1	85.6	78.3	70.6	80.6	70.3	74.8
Cn1cc(C2=C(c3cn(C4CCN(Cc5ccccn5)CC4)c4ccccc34)C(=O)NC2=O)c2ccccc21 [Enzastaurin] + CN(NC(=O)CC(=O)NN(C)C(=S)c1ccccc1)C(=S)c1ccccc1 [STA4783] (first compound 4 µM, partner dose 0.03 µM)	26.4	86.4	28.7	32.1	59.4	73.9	107	16.2	60.1	19.9	26.7	60	93.5	72.5	125	41.8	20.2	70.9	25.6	93.6
Cn1cc(C2=C(c3cn(C4CCN(Cc5ccccn5)CC4)c4ccccc34)C(=O)NC2=O)c2ccccc21 [Enzastaurin] + Nc1nc(F)nc2c1ncn2[C@@H]1O[C@H](CO)[C@@H](O)[C@@H]1O [fludarabine] (first compound 4 µM, partner dose 1 µM)	56.9	84.3	73.7	64.2	67.5	81.5	114	96.7	48.4	34.8	2.02	1.75	21.4	27.6	43.6	79.7	92.1	87.4	53.6	19.2
C[C@]12O[C@H](C[C@]1(O)CO)n1c3ccccc3c3c4c(c5c6ccccc6n2c5c31)CNC4=O [Lestaurtinib] + O=C(O)c1ccc2c(c1)nc(Nc1cccc(Cl)c1)c1ccncc12 [CX4945] (first compound 0.02 µM, partner dose 2 µM)	57.1	63.6	93	78.7	100	61.5	77.4	66.5	88.8	79.5	56.9	85.4	57.2	51.2	94.8	64.1	68.5	107	69.6	66.7
C[C@]12O[C@H](C[C@]1(O)CO)n1c3ccccc3c3c4c(c5c6ccccc6n2c5c31)CNC4=O [Lestaurtinib] + CO[C@H]1C[C@@H]2CC[C@@H](C)[C@@](O)(O2)C(=O)C(=O)N2CCCC[C@H]2C(=O)O[C@H]([C@H](C)C[C@@H]2CC[C@@H](OCCO)[C@H](OC)C2)CC(=O)[C@H](C)/C=C(\C)[C@@H](O)[C@@H](OC)C(=O)[C@H](C)C[C@H](C)/C=C/C=C/C=C/1C [everolimus] (first compound 0.02 µM, partner dose 0.1 µM)	52.5	60.8	90.2	59.5	75.2	76.6	84.9	61	100	77.7	43.1	70.4	55.2	44.9	90	64.4	56.8	77.8	90.2	60
C[C@]12O[C@H](C[C@]1(O)CO)n1c3ccccc3c3c4c(c5c6ccccc6n2c5c31)CNC4=O [Lestaurtinib] + Cc1cc(Nc2cc(N3CCN(C)CC3)nc(/C=C/c3ccccc3)n2)n[nH]1 [ENMD2076] (first compound 0.02 µM, partner dose 0.2 µM)	75.2	65.3	96	59.7	101	68.5	106	65.3	96.1	82.6	44.3	112	88.2	59.9	87.4	69.2	51.4	79.4	79.6	70.9
C[C@]12O[C@H](C[C@]1(O)CO)n1c3ccccc3c3c4c(c5c6ccccc6n2c5c31)CNC4=O [Lestaurtinib] + CS(=O)(=O)CCNCc1ccc(-c2ccc3ncnc(Nc4ccc(OCc5cccc(F)c5)c(Cl)c4)c3c2)o1 [lapatinib] (first compound 0.02 µM, partner dose 4 µM)	45	74	97.9	65.5	110	68.5	46.4	71.8	29	84.9	49.8	77.1	73.7	48.2	90.4	45	83	96	106	70
C[As](C)SC[C@H](NC(=O)CC[C@H](N)C(=O)O)C(=O)NCC(=O)O [Darinaparsin] + CN(NC(=O)CC(=O)NN(C)C(=S)c1ccccc1)C(=S)c1ccccc1 [STA4783] (first compound 2 µM, partner dose 0.03 µM)	23.4	90.8	24.2	20	68.7	86.3	118	19.2	93.8	45.2	12.9	69.8	79	40.7	71.5	58.4	26.1	63.6	42.4	85.1
C[C@]12O[C@H](C[C@]1(O)CO)n1c3ccccc3c3c4c(c5c6ccccc6n2c5c31)CNC4=O [Lestaurtinib] + CCCS(=O)(=O)Nc1ccc(F)c(C(=O)c2c[nH]c3ncc(Cl)cc23)c1F [PLX4720] (first compound 0.02 µM, partner dose 0.4 µM)	63	55.1	86.4	68.4	124	77.1	71.4	83.5	97.9	59	35.9	111	79.5	50.5	83.6	50.4	55.9	66.7	65	40.1
C[C@]12O[C@H](C[C@]1(O)CO)n1c3ccccc3c3c4c(c5c6ccccc6n2c5c31)CNC4=O [Lestaurtinib] + O=C(CCCCCCC(=O)Nc1ccccc1)NO [vorinostat] (first compound 0.02 µM, partner dose 0.4 µM)	85.7	100	84.7	66.4	84.5	94.4	110	80.4	74.8	116	50.6	80.8	95.9	57.7	85.2	78.4	75.6	95.5	61.7	66.6
Cn1cc(C2=C(c3cn(C4CCN(Cc5ccccn5)CC4)c4ccccc34)C(=O)NC2=O)c2ccccc21 [Enzastaurin] + OCCn1cc(-c2cnc3nnn(Cc4ccc5ncccc5c4)c3n2)cn1 [PF04217903] (first compound 4 µM, partner dose 5 µM)	77.6	120	101	75.9	104	114	126	91.4	71.7	64.2	140	72.4	124	88.7	98.5	75.7	139	83.3	58.6	86
N.N.[Cl][Pt][Cl] [cisplatin] + O=C(CCCCCCC(=O)Nc1ccccc1)NO [vorinostat] (first compound 8 µM, partner dose 0.4 µM)	64.6	92.2	94.6	74.5	44.5	77	99.4	64.5	58	57.1	56.2	75.9	75.2	53.5	57.5	73	63.4	77.2	55.8	62.1
N.N.[Cl][Pt][Cl] [cisplatin] + C[C@]1(c2nc3c(C(N)=O)cccc3[nH]2)CCCN1 [Veliparib] (first compound 8 µM, partner dose 7 µM)	35.4	69.4	90.9	65.4	45	78.1	50.6	80.6	21.8	81.3	27.1	41.5	67.7	65	67	48.7	54.1	73.9	67.1	78.1
N.N.[Cl][Pt][Cl] [cisplatin] + CO[C@@H]1[C@H](N(C)C(=O)c2ccccc2)C[C@H]2O[C@]1(C)n1c3ccccc3c3c4c(c5c6ccccc6n2c5c31)C(=O)NC4 [Midostaurin] (first compound 8 µM, partner dose 0.4 µM)	40.8	59.2	472	50.3	41	73.8	63.4	63.2	32.9	68.2	27.6	51.2	82.6	61	53.5	66.6	55.6	40.4	24.1	64.1

Reference: the supplement of paper PMC4604168 (melanoma cell lines)
